Binding data for four molecules are collected here from PMC7718735.

Amino acid sequences for entries named in this document (tags omitted).
UniProt O60016: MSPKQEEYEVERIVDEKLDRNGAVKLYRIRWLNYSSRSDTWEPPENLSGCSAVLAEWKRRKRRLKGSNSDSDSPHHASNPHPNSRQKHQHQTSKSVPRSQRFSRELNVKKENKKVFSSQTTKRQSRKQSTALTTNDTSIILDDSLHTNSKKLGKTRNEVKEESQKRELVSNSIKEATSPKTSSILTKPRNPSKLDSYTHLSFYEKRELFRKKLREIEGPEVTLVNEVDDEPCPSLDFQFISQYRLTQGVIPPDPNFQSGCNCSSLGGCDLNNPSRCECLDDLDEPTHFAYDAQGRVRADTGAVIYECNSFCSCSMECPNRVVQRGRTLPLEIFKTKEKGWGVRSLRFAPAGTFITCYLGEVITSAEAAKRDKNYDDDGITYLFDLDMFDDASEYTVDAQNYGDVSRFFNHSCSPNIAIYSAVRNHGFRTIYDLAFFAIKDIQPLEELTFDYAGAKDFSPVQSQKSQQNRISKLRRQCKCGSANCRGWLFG
UniProt O13959: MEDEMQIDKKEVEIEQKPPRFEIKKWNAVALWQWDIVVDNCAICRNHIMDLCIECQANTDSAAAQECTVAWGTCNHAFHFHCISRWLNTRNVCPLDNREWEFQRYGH

Holding throughout (assay): two-hybrid; split-ubiquitin membrane yeast two-hybrid (MYTH) in S. cerevisiae; bait-Cub-LexA-VP16 strains mated with the arrayed Nub prey library, diploids spotted in quadruplicate on SD-leu-trp-ade-his with 25 mM 3-AT, imaged every 24 hr for 4 days; positive by a colony density cutoff
Test [1] has as its target T1, Lem2 MYTH bait (S. pombe) (UniProt Q10109).
T1 sequence: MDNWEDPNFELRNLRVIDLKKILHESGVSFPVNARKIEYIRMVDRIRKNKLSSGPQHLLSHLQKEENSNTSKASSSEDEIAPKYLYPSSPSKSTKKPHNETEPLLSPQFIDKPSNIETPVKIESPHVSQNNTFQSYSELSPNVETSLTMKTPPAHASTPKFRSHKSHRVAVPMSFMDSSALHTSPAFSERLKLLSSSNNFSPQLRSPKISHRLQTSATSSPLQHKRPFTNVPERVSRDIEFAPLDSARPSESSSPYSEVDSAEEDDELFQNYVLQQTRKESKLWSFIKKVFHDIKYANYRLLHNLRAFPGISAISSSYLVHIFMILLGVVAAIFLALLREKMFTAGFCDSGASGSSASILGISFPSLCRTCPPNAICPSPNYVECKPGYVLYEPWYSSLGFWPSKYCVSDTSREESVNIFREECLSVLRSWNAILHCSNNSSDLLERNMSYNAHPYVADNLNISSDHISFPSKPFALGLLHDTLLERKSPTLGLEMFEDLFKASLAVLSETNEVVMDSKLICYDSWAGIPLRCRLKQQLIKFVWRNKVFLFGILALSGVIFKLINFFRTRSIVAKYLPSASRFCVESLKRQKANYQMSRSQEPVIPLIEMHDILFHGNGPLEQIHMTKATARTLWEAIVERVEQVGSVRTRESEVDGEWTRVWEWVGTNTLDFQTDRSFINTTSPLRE

Test [2] has as its target T2, Cut11 MYTH bait (wild type) (S. pombe) (UniProt O13961).
T2 sequence: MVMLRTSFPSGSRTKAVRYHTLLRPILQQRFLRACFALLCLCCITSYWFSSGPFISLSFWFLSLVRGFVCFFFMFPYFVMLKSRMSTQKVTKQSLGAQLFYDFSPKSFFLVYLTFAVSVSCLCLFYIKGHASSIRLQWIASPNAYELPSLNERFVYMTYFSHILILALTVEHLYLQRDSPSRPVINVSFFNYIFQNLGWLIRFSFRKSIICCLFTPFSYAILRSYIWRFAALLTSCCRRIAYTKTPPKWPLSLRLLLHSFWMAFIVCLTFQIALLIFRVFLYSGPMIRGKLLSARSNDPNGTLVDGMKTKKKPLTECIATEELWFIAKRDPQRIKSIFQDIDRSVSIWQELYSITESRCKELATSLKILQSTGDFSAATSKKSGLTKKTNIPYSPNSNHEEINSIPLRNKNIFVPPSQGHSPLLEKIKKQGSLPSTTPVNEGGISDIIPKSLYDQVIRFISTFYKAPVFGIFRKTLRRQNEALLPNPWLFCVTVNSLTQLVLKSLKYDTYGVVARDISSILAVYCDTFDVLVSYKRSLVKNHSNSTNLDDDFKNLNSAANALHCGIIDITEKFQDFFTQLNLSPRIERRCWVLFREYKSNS

Test [3] addresses T3, Ima1 MYTH bait (S. pombe) (UniProt O13681).
T3 sequence: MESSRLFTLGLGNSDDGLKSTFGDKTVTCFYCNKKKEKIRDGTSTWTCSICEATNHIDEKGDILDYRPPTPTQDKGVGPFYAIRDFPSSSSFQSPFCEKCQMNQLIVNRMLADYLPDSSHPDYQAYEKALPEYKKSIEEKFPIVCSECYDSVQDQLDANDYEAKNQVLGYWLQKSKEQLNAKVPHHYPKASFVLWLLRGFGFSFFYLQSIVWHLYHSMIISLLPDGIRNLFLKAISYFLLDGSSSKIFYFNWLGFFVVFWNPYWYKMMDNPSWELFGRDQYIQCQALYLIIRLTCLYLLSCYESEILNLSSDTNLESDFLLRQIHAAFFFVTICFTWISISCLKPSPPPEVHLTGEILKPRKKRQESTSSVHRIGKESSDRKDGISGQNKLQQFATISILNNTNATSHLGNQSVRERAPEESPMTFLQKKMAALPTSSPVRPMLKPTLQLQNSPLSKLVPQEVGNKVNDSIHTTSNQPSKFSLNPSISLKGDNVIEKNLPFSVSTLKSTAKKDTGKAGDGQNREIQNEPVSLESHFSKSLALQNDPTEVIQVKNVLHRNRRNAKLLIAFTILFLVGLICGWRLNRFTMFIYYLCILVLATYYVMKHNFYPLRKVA

In test [4] the target is T4, Cut11 C525R MYTH bait (S. pombe) (UniProt O13961).
T4 sequence: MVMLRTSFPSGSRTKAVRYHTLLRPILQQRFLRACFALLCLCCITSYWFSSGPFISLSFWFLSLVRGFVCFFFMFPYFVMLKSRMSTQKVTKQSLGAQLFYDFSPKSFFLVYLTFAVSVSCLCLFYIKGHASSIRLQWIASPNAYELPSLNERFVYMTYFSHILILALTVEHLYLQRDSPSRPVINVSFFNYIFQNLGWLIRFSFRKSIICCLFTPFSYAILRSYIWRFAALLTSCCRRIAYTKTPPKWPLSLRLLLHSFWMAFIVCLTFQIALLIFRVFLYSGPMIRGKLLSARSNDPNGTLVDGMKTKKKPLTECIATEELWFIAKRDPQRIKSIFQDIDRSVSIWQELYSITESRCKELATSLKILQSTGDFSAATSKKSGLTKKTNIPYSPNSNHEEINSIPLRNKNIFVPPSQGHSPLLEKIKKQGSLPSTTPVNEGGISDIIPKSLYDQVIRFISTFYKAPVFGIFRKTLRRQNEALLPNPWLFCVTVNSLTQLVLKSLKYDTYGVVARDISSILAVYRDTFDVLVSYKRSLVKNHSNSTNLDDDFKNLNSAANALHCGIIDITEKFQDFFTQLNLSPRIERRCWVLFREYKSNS

Test [5] has as its target T5, Cut11 T498I MYTH bait (S. pombe) (UniProt O13961).
T5 sequence: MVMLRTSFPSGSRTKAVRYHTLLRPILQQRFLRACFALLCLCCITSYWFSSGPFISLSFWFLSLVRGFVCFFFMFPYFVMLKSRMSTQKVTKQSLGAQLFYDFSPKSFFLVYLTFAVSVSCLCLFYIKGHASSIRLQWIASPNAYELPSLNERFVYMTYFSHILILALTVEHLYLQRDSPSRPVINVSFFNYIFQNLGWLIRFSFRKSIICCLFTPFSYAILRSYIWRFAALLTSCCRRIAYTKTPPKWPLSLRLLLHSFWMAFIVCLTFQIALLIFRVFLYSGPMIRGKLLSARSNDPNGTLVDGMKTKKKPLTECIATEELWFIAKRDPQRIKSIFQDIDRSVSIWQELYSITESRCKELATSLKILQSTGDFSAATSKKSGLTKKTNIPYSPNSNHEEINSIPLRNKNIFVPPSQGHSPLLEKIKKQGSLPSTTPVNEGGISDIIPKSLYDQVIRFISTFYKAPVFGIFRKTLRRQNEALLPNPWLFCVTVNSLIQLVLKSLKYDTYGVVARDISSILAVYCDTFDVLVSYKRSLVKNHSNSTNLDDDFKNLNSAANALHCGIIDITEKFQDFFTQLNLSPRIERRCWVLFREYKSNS

Test [6] has as its target T6, Cut11 L521F MYTH bait (S. pombe) (UniProt O13961).
T6 sequence: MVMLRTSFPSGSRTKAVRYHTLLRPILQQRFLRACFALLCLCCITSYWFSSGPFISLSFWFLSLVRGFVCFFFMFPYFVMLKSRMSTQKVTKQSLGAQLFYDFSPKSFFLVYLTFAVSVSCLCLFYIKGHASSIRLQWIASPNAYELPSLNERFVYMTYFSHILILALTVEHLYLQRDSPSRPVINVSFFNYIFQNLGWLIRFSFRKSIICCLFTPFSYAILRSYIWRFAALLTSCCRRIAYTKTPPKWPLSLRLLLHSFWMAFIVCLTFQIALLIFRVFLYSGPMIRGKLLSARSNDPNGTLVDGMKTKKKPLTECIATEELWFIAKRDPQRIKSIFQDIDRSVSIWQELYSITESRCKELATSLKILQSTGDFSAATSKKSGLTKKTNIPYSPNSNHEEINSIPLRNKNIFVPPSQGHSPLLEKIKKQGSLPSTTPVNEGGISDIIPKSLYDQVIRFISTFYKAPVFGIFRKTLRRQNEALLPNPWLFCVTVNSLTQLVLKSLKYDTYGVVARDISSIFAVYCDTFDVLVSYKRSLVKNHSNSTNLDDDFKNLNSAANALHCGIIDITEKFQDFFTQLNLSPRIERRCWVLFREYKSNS

Results are given in words; binding and its absence hold for the method and conditions named. Some entries that bind do so weakly or less than the wild type.

Regarding “Clr4 MYTH prey (from UniProt O60016 1-490)”, in test [1], the binding entry is “no binding”.

On to “Rbx1 MYTH prey (from UniProt O13959 1-107)”, for which the binding entry in test [1] was “binds weakly”.

B1: Ima1 MYTH prey (protein, UniProt O13681 1-615)
chain: MESSRLFTLGLGNSDDGLKSTFGDKTVTCFYCNKKKEKIRDGTSTWTCSICEATNHIDEKGDILDYRPPTPTQDKGVGPFYAIRDFPSSSSFQSPFCEKCQMNQLIVNRMLADYLPDSSHPDYQAYEKALPEYKKSIEEKFPIVCSECYDSVQDQLDANDYEAKNQVLGYWLQKSKEQLNAKVPHHYPKASFVLWLLRGFGFSFFYLQSIVWHLYHSMIISLLPDGIRNLFLKAISYFLLDGSSSKIFYFNWLGFFVVFWNPYWYKMMDNPSWELFGRDQYIQCQALYLIIRLTCLYLLSCYESEILNLSSDTNLESDFLLRQIHAAFFFVTICFTWISISCLKPSPPPEVHLTGEILKPRKKRQESTSSVHRIGKESSDRKDGISGQNKLQQFATISILNNTNATSHLGNQSVRERAPEESPMTFLQKKMAALPTSSPVRPMLKPTLQLQNSPLSKLVPQEVGNKVNDSIHTTSNQPSKFSLNPSISLKGDNVIEKNLPFSVSTLKSTAKKDTGKAGDGQNREIQNEPVSLESHFSKSLALQNDPTEVIQVKNVLHRNRRNAKLLIAFTILFLVGLICGWRLNRFTMFIYYLCILVLATYYVMKHNFYPLRKVA
With B1, the binding entry is “binds” in test [2]; “no binding” in test [3]; “binds” in test [4]; “binds” in test [5]; “binds” in test [6].

B2: Cut11 MYTH prey (protein, UniProt O13961 1-601)
chain: MVMLRTSFPSGSRTKAVRYHTLLRPILQQRFLRACFALLCLCCITSYWFSSGPFISLSFWFLSLVRGFVCFFFMFPYFVMLKSRMSTQKVTKQSLGAQLFYDFSPKSFFLVYLTFAVSVSCLCLFYIKGHASSIRLQWIASPNAYELPSLNERFVYMTYFSHILILALTVEHLYLQRDSPSRPVINVSFFNYIFQNLGWLIRFSFRKSIICCLFTPFSYAILRSYIWRFAALLTSCCRRIAYTKTPPKWPLSLRLLLHSFWMAFIVCLTFQIALLIFRVFLYSGPMIRGKLLSARSNDPNGTLVDGMKTKKKPLTECIATEELWFIAKRDPQRIKSIFQDIDRSVSIWQELYSITESRCKELATSLKILQSTGDFSAATSKKSGLTKKTNIPYSPNSNHEEINSIPLRNKNIFVPPSQGHSPLLEKIKKQGSLPSTTPVNEGGISDIIPKSLYDQVIRFISTFYKAPVFGIFRKTLRRQNEALLPNPWLFCVTVNSLTQLVLKSLKYDTYGVVARDISSILAVYCDTFDVLVSYKRSLVKNHSNSTNLDDDFKNLNSAANALHCGIIDITEKFQDFFTQLNLSPRIERRCWVLFREYKSNS
In the case of B2, the binding result in test [2] and in test [6] was “binds” each time.
